Among all 44,000 compounds or so, about 340 (0.77%) were called active. About 5% were inconclusive and are not listed. Calls come from the whole dose curve; as a rule, active = well fitted inhibition curve with a large enough effect; inconclusive = small, poorly fitted or top-dose-only effect; inactive = flat fitted curve, though single readings scatter. The list shows a part of the results.
assay: Acumen qHTS Assay for Inhibitors of the mTORC1 Signaling Pathway in MEF (Tsc2-/-, p53-/-) Cells: Sytravon; settings: phospho-rpS6 immunofluorescence/PI, 24 h; series mostly up to 38.3 µM; activity change, negative = inhibition: at the top concentration;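 note: plate controls were DMSO for no effect and rapamycin for full effect; nearly all actives have a fitted effect of over 50% in size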
Outline: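 Immunofluorescence of rpS6 phosphorylation in Tsc2-/-, p53-/- MEFs after 24 h compound exposure, normalized to propidium iodide signal. Activity is expressed as % positive cells, thresholded with 7.5 nM rapamycin.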

Activity change, negative = inhibition, inactive:
O=C(c1ccc2c(c1)N(Cc1ccccc1)C(=O)c1ccccc1S2(=O)=O)N1CCC(Cc2ccccc2)CC1 -0.015%
COc1cc(C2c3c(-c4ccccc4O)n[nH]c3C(=O)N2Cc2ccncc2)cc(OC)c1OC (centres undefined) 1.73%
COc1ccc(CNC(=O)C2CCN(C(=O)N3CCOc4ccc(C)cc43)CC2)cc1 -1.61%
CC1CCCN(C(=O)c2ccc(CSc3nc4ccncc4n3Cc3ccccc3)cc2)C1 (centres undefined) -0.889%
O=C(NCc1ccc(Cl)cc1)c1cc2cccc3c2n1CCS3 0.53%
CCc1cc(C(=O)N2CCN(c3ccccc3)CC2)no1 -0.0697%
COc1ccccc1N1CCN(c2c3c(nc4nncn24)CCC3)CC1 -2.28%
CC(C)(C)NC(=O)Cn1cc(S(=O)(=O)Cc2ccccc2Cl)c2ccccc21 1.41%
Cc1cccc(-n2c(=O)c3c(c4cc(C)ccc4n3C)n(CC(=O)Nc3ccc(C)c(C)c3)c2=O)c1 -0.68%
COC(=O)c1sccc1S(=O)(=O)N(CC(=O)NCc1ccc(F)cc1)c1ccccc1 -1.11%
Cc1cccc(NC(=O)Cn2c(=O)n(Cc3nc(-c4ccccc4)no3)c(=O)c3ccccc32)c1 -1.37%
CCOC(=O)Cn1c(=N)n(CCOc2ccc(OC)cc2)c2ccccc21 3.05%
COc1ccc(-c2nc(SCC(=O)NCC3CCCO3)c(-c3ccc(C)cc3)[nH]2)cc1OC (centres undefined) 9.02%
COc1ccc(NC(=O)N2CCN(Cc3nc4ccc(C)cc4o3)CC2)cc1OC 0%
CCCCNC(=O)CN1CCN(c2ccc(NC(=O)c3ccc(OC)cc3)cc2C(=O)O)CC1 -0.225%
Cc1ccc(N(C)S(=O)(=O)c2nnc(NC(=O)c3ccco3)s2)cc1 -2.22%
COc1ccc(-c2c(C#N)c(SCC(=O)Nc3ccc(C)c(C)c3)nc(C)c2C(=O)Nc2ccccc2)cc1OC 8.97%
CCn1cc(C(=O)NCCc2ccc(OC)c(OC)c2)c(=O)c2cc(S(=O)(=O)N3CCOCC3)ccc21 -11.9%
Cc1ccc(C(=O)Nc2nnc(S(=O)(=O)N(C)Cc3ccco3)s2)cc1 -5.49%
Cc1cccc(-n2nnc(-c3nc(-c4ccccc4)no3)c2N)c1C -9.75%
COc1cccc(CNC(=O)c2ccc3c(c2)nc2n3CCOC2)c1OC 3.99%
Cc1ccc(C)c(NC(=O)CN2CCN(C3CCCCC3)C(=O)C2=O)c1 0%
CCc1nc2c(cnn2-c2ccc(C)cc2)c(=O)n1-c1ccc(C)cc1 1.33%
O=C(Nc1cccc(C(F)(F)F)c1)c1cc(-c2ccc(Cl)cc2)on1 -24.7%
COc1ccc(S(=O)(=O)c2c(SC)nn(CC(=O)Nc3ccc(C)c(Cl)c3)c2N)cc1 -20.5%
Cc1ccc(-c2noc(C(C)NC(=O)c3ccco3)n2)cc1 (centres undefined) -3.01%
COCCCNC(=O)CSc1nc2cc3c(cc2c(=O)n1CCCCCC(=O)NCCc1ccc(OC)c(OC)c1)OCO3 1.02%
CC(C)(C)C1CCc2nc(NC(=O)COc3ccccc3[N+](=O)[O-])sc2C1 (centres undefined) 0.487%
COc1ccc2c(CNC3CCCC3)c(C(=O)O)n(Cc3ccccc3C)c2c1 -5.25%
CCc1nn2c(=O)cc(COC(=O)c3cccc(NC(=O)c4ccccc4C)c3)nc2s1 10.2%
CC1=C(c2ccc(C)cc2)S(=O)(=O)N(Cc2ccc(C(=O)NCc3ccccc3)cc2)C1=O 0.004%
O=C(NCc1ccc(F)cc1)c1ccc2c(c1)N(Cc1c(F)cccc1Cl)C(=O)CS2 -8.72%
Cc1cc(C)c2c(=O)cc(C(=O)Nc3sc4c(c3C#N)CCCC4)oc2c1 1.87%
Cc1ccccc1NC(=O)CN1C(=O)C2(SCC(=O)N2c2ccc(F)cc2)c2ccccc21 (centres undefined) -5.23%
COc1ccc2c(c1)c(CC(=O)Nc1cccc(F)c1C)c(C)n2C(=O)c1ccc(Cl)cc1 9.78%
COc1cccc(-n2ccn(CC(=O)Nc3ccccc3F)c(=O)c2=O)c1 8.39%
COc1ccc(C2=C(C)C(N3CCC(C(=O)NCc4ccco4)CC3)=NS2(=O)=O)cc1 0%
Cc1ccc(CNS(=O)(=O)c2cc(C(=O)Nc3ccc(C(C)C)cc3)ccc2F)cc1 2.43%
Cc1ccc(CNC(=O)CSCc2nc(-c3ccc(Cl)cc3)oc2C)cc1 1.81%
CCc1ccccc1NC(=O)Cn1cc(C(=O)c2ccc(Cl)cc2)c(=O)c2ccc(C)nc21 2.76%
CCOC(=O)c1[nH]c2ccccc2c1NC(=O)c1cc(OC)cc(OC)c1 -5.74%
COc1cccc(-c2ccnc3c(-c4ccccc4)c(C)nn23)c1 -0.521%
CCOc1ccc(NC(=O)N2CCC(CN3CCC(C)CC3)CC2)cc1 -9.11%
Cc1cccc(N2CCN(C(=O)COCc3cc(-c4ccc5c(c4)OCO5)on3)CC2)c1C -6.3%
COc1ccc(-c2cc(C(=O)NCCc3ccc(Cl)cc3)[nH]n2)cc1 -13.3%
Cc1ccccc1-c1nc2c3c(-c4ccccc4)c(-c4ccccc4)oc3ncn2n1 1.04%
COC(=O)c1ccccc1NC(=O)COCc1cc(-c2cccs2)on1 0.825%
COc1ccc(-c2cc(C(=O)Nc3cccc(C(C)=O)c3)no2)cc1OC 5.25%
CCn1c(=O)n(-c2ccc(F)c(Cl)c2)c(=O)c2sc3ccccc3c21 0.392%
Cc1ccc(CN(C(=O)c2ccc(F)cc2)c2ccccn2)o1 0.344%
O=C(NCc1ccc(F)cc1)C1CCN(S(=O)(=O)c2ccc3c(c2)CCCN3C(=O)C2CCC2)CC1 -3.4%
O=C(COc1ccccc1Cl)N(Cc1ccco1)Cc1ccco1 2.42%
Cc1ccccc1C(=O)Oc1cc(-c2ccc3c(c2)OCO3)cc(=O)c2c(C)oc(C)c12 -7.95%
CN(C)c1ccc(NC(=O)CSc2nc(-c3ccco3)cc(C(F)(F)F)n2)cc1 -12%
O=C(NCc1ccc(F)cc1)c1cnc(N2CCOCC2)c2ccccc12 -6.33%
Cc1cc(C)cc(NC(=O)C2CCCN(c3cnccn3)C2)c1 (centres undefined) -14.2%
Cc1ccc(Cl)cc1NC(=O)c1cc2c(=O)n3cccc(C)c3nc2n1C 3.88%
Cc1ccc(S(=O)(=O)c2cnc(SCC(=O)Nc3ccccc3C(F)(F)F)[nH]c2=O)cc1C -4.44%
CCOc1cc(CNC(=O)c2ccc3c(c2)nc2n3CCCCC2)ccc1OC 0%
Cc1ccc(N2CCN(C(=O)c3ccc(Nc4nc5ccccc5n5nnnc45)cc3)CC2)c(C)c1 2.87%
COc1ccccc1N1CCN(S(=O)(=O)c2c(C)sc3ncn(CC(=O)Nc4ccc(C(C)C)cc4)c(=O)c23)CC1 -2.02%
COc1ccc(-n2c(=O)c3c4c(sc3n(CC(=O)N3CCCCC3C)c2=O)CCC4)c(OC)c1 (centres undefined) -2.4%
CC1CCN(CCCNC(=O)CN2C(=O)CSc3ccc(S(=O)(=O)N4CCC(C)CC4)cc32)CC1 -0.439%
O=C(NC1CCCC1)c1cnn(-c2ccc(F)cc2F)c1C1CCNCC1 -12.9%
COc1ccc(Cl)cc1NC(=O)CSc1nc2c([nH]c3ccccc32)c(=O)n1-c1ccccc1 0.354%
Cc1ccc(S(=O)(=O)N2CCN(Cc3ccccc3)CC2)c(C)c1NS(C)(=O)=O -1.46%
CCSc1nnc2c(n1)OC(c1ccc(OC)cc1OC)N(C(C)=O)c1ccccc1-2 (centres undefined) -0.852%
Cc1ccc(C2=NC(c3ccc(F)cc3)=Nc3ccc(C)cc3N2)cc1 5.59%
COc1ccccc1OCCCCn1c(C2CC(=O)N(c3ccccc3Cl)C2)nc2ccccc21 (centres undefined) 7.64%
Cc1ccc(NC(=O)/C(C#N)=C/c2ccccc2Cl)cc1C 1.28%
COc1ccc(CCNC(=O)Cn2c(=O)n(-c3ccc(OC)c(OC)c3)c(=O)c3ccccc32)cc1OC -5.48%
CCN(CC)CCNC(=O)CN1C(=O)c2cccnc2Oc2ccc(C)cc21 0.54%
Cc1ccc(NC(=O)CN2c3ccccc3S(=O)(=O)c3ccccc32)cc1F 11.1%
CN(Cc1ccccc1)Cc1c(O)ccc2c(=O)c(-c3ccccc3)c(C(F)(F)F)oc12 -19.2%
COc1cc(NC(=O)Cn2c(=O)n(CC(=O)NCCc3ccc(OC)c(OC)c3)c(=O)c3sccc32)cc(OC)c1 -19.2%
Cc1nc(-c2ccc(S(=O)(=O)N3CCN(c4cccc(Cl)c4)CC3)cc2)co1 -6.71%
CC(=O)c1cccc(NC(=O)c2sc(-n3nc(C)c(CCC(C)C)c3C)nc2C)c1 -6.35%
CC(=O)Nc1ccc(S(=O)(=O)NCC2CCC(C(=O)NCc3ccccc3Cl)CC2)cc1 (centres undefined) -2.04%
CC(=O)NCCNc1nc2c(-c3cccc(C)c3)nnn2c2ccc(Cl)cc12 -20.6%
CSc1ccc(CNC(=O)Cc2csc3ccccc23)cc1 -6.88%
COc1ccc(-n2nnnc2C2CCN(S(=O)(=O)c3ccc(F)cc3Cl)CC2)cc1 -10.2%
COc1cccc(Nc2sc(C(=O)c3ccc4c(c3)OCO4)c(N)c2S(=O)(=O)c2ccccc2)c1 2.68%
COc1ccc(N2CC(NC(=O)Cc3cccs3)CC2=O)cc1 (centres undefined) 3.67%
Cc1ccc2ncc(S(=O)(=O)c3ccccc3)c(N3CCCCC3C)c2c1 (centres undefined) 3.14%
CCn1c(C)c(C)c2cc(C(=O)NCc3ccc(N(C)C)cc3)ccc21 0%
COc1ccc(CNC(=O)CN(c2cc(C(F)(F)F)ccc2Cl)S(C)(=O)=O)cc1 7.72%
COc1ccc(C2=NC3(CCCCCC3)N(CC(=O)Nc3ccc(C)c(C)c3)C2=O)cc1 1.53%
Cc1ccc(C(=O)c2oc3ccccc3c2NC(=O)c2cc(-c3ccc(Cl)cc3)on2)cc1 -1.36%
COc1ccc(Cl)cc1NC(=O)Cn1ncc2c3ccccc3n(Cc3ccccc3)c2c1=O -0.069%
Cc1ccccc1Nc1sc(C(=O)c2ccc(F)cc2)c(N)c1C(=O)NCCc1ccccc1 -0.397%
CCOc1ccc(C(=O)NCc2nnnn2-c2ccc(C)c(C)c2)cc1OCC 0.0223%
Cc1cc(C)c(NC(=O)CCN2C(=O)c3ccccc3Sc3ncccc32)c(C)c1 3.31%
Cc1ccc(-n2c(=O)c3ccc(C(=O)NCc4ccccc4Cl)cc3n(CC(=O)Nc3cccc(Cl)c3)c2=O)cc1 1.17%
Cc1nc2cc(C(=O)NCCC3=CCCCC3)ccc2n1-c1ccc(Br)cc1 -0.431%
